Measured values: the supplement of paper PMC10441789
The list shows a part of the results. Antibody binding of pooled human sera (four to six donors per pool; dilution not stated) to peptides of the Trypanosoma cruzi antigen TSSA on microarrays. Quantile-normalised fluorescence in arbitrary units, mean of duplicate arrays; higher = more binding. No active / inactive call. The uninfected pools are read here as the healthy donors of the same country. The strongest signals lie near the top of the scale (about 60,000).

Tests used:
Test in all cases: antibody binding signal (normalised fluorescence) (arbitrary fluorescence units); higher = stronger serum antibody binding to peptide
[1] = system: pooled sera of chronic Chagas disease patients, Argentina
Experimental: (§1)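 Microarray of 15-residue peptides over residues 30-55 of Trypanosoma cruzi TSSAII, each with 1 to 10 substitutions at naturally variable positions, probed with one serum pool per country.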

[2] = system: pooled sera of chronic Chagas disease patients, Bolivia
Experimental: as §1

[3] = system: pooled sera of chronic Chagas disease patients, Brazil
Experimental: as §1

[4] = system: pooled sera of chronic Chagas disease patients, Colombia
Experimental: as §1

[5] = system: pooled sera of chronic Chagas disease patients, Mexico
Experimental: as §1

[6] = system: pooled sera of chronic Chagas disease patients, USA
Experimental: as §1

[7] = system: pooled sera of uninfected people, Argentina
Experimental: as §1

[8] = system: pooled sera of uninfected people, Bolivia
Experimental: as §1

[9] = system: pooled sera of uninfected people, Brazil
Experimental: as §1

[10] = system: pooled sera of uninfected people, Colombia
Experimental: as §1

[11] = system: pooled sera of uninfected people, Mexico
Experimental: as §1

[12] = system: pooled sera of uninfected people, USA
Experimental: as §1

Sequence	antibody binding signal [1]	antibody binding signal [2]	antibody binding signal [3]	antibody binding signal [4]	antibody binding signal [5]	antibody binding signal [6]	antibody binding signal [7]	antibody binding signal [8]	antibody binding signal [9]	antibody binding signal [10]	antibody binding signal [11]	antibody binding signal [12]
TPPSGTDKKTAAGGT	14900	1970	22800	8750	36000	2620	237	200	1060	376	281	148
DKKAATGEAPSPSGA	19800	22700	26000	184	456	24900	689	115	185	720	140	210
NKAAAGETPSPPGAS	250	578	14400	326	210	791	475	1050	225	573	315	1650
GTDNKPATGETPSQP	36800	32400	46200	1430	407	28300	275	791	670	129	1990	188
GTENKAAAGGAPSQP	39900	2060	16200	3760	1900	2310	195	372	211	248	151	251
PSGKENKTATGGAPS	7730	1920	9010	10400	8410	7970	5670	1990	140	482	250	209
SGTENKAATGETPSP	25400	23600	28000	332	225	16000	453	399	147	129	200	1170
SGKEKKAAAGETPSP	3950	596	4940	2990	6590	6520	207	158	98.3	113	80	211
SGKEKKTAAGETPSQ	5080	1470	3730	2570	5790	5640	240	168	91.4	257	185	137
PSGKDNKAATGGTPS	2470	383	2650	4440	3800	3480	261	199	144	113	89	102
KDNKTATGGTPSQPG	441	227	281	3380	305	454	674	156	164	228	636	155
TENKTAAGETPSPPG	25500	280	896	181	339	2120	188	224	198	154	170	1010
SGTENKPATGETPSQ	39000	33800	41500	218	410	30600	868	1220	337	122	1820	140
TPPSGTEKKAATGEA	32200	16600	27700	244	9730	3070	745	256	554	465	229	135
SSTPPSGKENKAATG	14600	3430	9300	1110	3470	2700	2960	1270	131	767	143	507
TPPSGKENKPATGET	32500	35600	17400	343	6450	15300	2020	1870	406	771	2530	2440
GTDNKPAAGETPSQP	3620	3820	44000	904	213	4420	129	611	320	199	322	104
GKDNKAAAGETPSPS	1410	271	2830	2050	2430	2840	199	351	108	205	152	1340
PPSGTEKKPAAGEAP	35500	22000	36200	785	5020	13300	1120	633	687	345	331	462
ENKAAAGEAPSQPGA	7800	29900	44800	334	232	14800	137	263	183	138	180	175
GKEKKTATGEAPSPP	12200	4420	7060	5500	7540	15200	176	94.3	107	119	92.4	94.7
KKTATGGTPSPPGAS	372	267	211	1150	224	1230	264	156	136	254	73.6	335
TPPSGKDKKTAAGEA	1560	485	801	513	27100	803	209	296	134	189	103	177
GKEKKAATGGAPSPP	1450	182	288	912	2030	2020	252	145	95.4	285	98.4	120
GKDNKAAAGGTPSQP	325	235	457	1020	559	1060	215	280	262	156	160	103

Sequence	antibody binding signal [1]	antibody binding signal [2]	antibody binding signal [3]	antibody binding signal [4]	antibody binding signal [5]	antibody binding signal [6]	antibody binding signal [7]	antibody binding signal [8]	antibody binding signal [9]	antibody binding signal [10]	antibody binding signal [11]	antibody binding signal [12]
PSGTENKAATGGTPS	49000	24900	42200	3260	3370	11000	1170	630	514	480	528	284
TDKKTATGEAPSQSG	12200	30000	19000	208	762	20700	233	121	206	134	190	129
GKEKKTATGETPSQS	5340	536	1700	4190	5930	7900	182	114	104	81.4	87.2	101
SGKEKKTATGEAPSP	12400	5250	8550	1400	1730	17800	272	284	113	156	172	112
KDKKPATGETPSQPG	24500	4020	34500	142	129	18100	243	279	168	168	664	140
SGKEKKPAAGETPSQ	10200	801	8320	4110	11000	7400	261	264	99.8	266	91.3	300
TSSTPPSGKDNKPAA	19200	4440	22800	669	21100	13600	1230	956	156	205	118	363
KEKKAAAGGAPSPSG	182	201	150	1950	283	342	118	95.8	107	106	80.9	99.6
NKTATGETPSQPGAS	2350	9440	36300	276	270	5830	555	2350	472	465	364	1390
KENKPAAGETPSQPG	1670	983	39500	359	527	4840	182	773	210	370	172	130
TEKKAATGEAPSPSG	23000	36900	26800	317	510	24300	633	152	237	602	184	289
ISTPPSGTDKKPATG	38300	5370	42800	12100	50300	11600	1090	956	202	244	2810	426
EKKAATGGAPSQPGA	1890	1490	6650	1480	2710	1600	344	1560	148	759	341	801
TENKTATGEAPSQPG	23600	34900	41500	132	264	22900	191	97.2	271	167	161	116
SGKENKAATGEAPSQ	24400	28600	37500	2660	2370	23400	8510	3800	120	526	456	215
KDKKPATGEAPSPPG	39900	18900	39700	149	149	28000	759	288	130	153	93.5	111
SGTENKAAAGEAPSQ	40500	21200	25800	534	506	12600	446	396	116	110	111	154
SGTDKKPAAGEAPSP	829	3890	27800	8250	835	14400	121	141	159	301	2340	134
DNKTATGETPSPPGA	372	1130	2660	437	169	6710	130	199	226	155	143	416
KDKKPAAGGAPSQSG	193	221	193	1220	228	245	114	91.9	128	86.3	77.1	94.4
TENKTATGEAPSQSG	19900	32700	23000	104	268	22700	221	102	194	128	242	132
PSGTENKPAAGETPS	46900	34700	43200	1560	4180	14000	1610	1670	468	512	460	519
TDNKAATGETPSPSG	3180	5950	19200	218	149	13900	145	314	214	135	423	3200
TDKKPAAGGTPSPPG	468	210	334	5600	280	842	130	731	2470	259	113	192
GTEKKTAAGGTPSQS	619	233	296	8000	547	1720	213	289	1090	193	330	179
